Experimental data as given in the RNAGym collection of RNA variant scans (doi:10.1073/pnas.2313332121).
This sample is rich in variants without activity.

B1: TPR 5TU (parent)
chain: GGAUCUUCUCGAUCUAACAAAAAAGACAAAUCUGCCACAAAGCUUGAGAGCAUCUUCGGAUGCAGAGGCGGCAGCCUUCGGUGGCGCGAUAGCGCCAACGUUCUCAACUAUGACACGCAAAACGCGUGCUCCGUUGAAUGGAGUUUAUCAUG

Variants of: B1
Assay: polymerase ribozyme fitness, log enrichment relative to wild type (log ratio); higher = more active; in vitro selection for triplet polymerase activity
Method in brief: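 Mutant libraries for each subunit of a heterodimeric triplet polymerase ribozyme were made by PCR and then transcribed. Each library underwent one round of in vitro selection in triplicate: annealing with a biotinylated primer, the partner subunit and triplets, frozen incubation at −7 °C, gel excision of extended constructs, streptavidin-bead capture and RT-PCR. Input and output libraries were Illumina-sequenced, and only genotypes with ≥10 input reads and ≥1 read per output were kept. Fitness is the logarithm, base 2, of genotype enrichment over wild-type enrichment, computed from inverse-variance-weighted replicate averages.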
For GGAUCUUCUCGAUCUAACAAAAAAGACAAAUCUGCCACAAAGCUUGGGAGCAUCUUCGCAAGCAGAGGCGGCAGCCUUCGGUGGCGCGAUACCGCCAACGUUCUCAACUAUGACACGCAAAACGCGUGCUCCGUUGAAUGAAGUUUACCAUG [A47G G59C U61A G92C G141A U148C], the “polymerase ribozyme fitness (log ratio)” value was at most -4.2.
With GGAUCUUCUCGAUCUAACAAAAAAGACAAAUCUGCCACAAAGCUUGGGAGCAUCUUCGGAUUCAGAGGCGGCAGCCUUCGGUGGCGCGAUAGCGCCAACGUUCUCAACUAUGACACGCAAAACGCGUGCUCCGUUGAAUGGAGUCUAUCAAG [A47G G62U U145C U151A] the “polymerase ribozyme fitness (log ratio)” value was at most -4.2.
For GGAUCUUCUCGAUCUAACAAAAAAGACAAAUCUGCCACAAAGCUUGGGAGCAUCUUCGGAUGCAAUGGCGGCAGCCUUCGGUGGCGUGAUAGCGCCAACGUUCUCAACUAUGACACGCAAAACGCGUGCUCCGUUGAAUGGAGUUUAUCAUG [A47G G65A A66U C87U], the “polymerase ribozyme fitness (log ratio)” value was at most -4.2.
With GGAUCUUCUCGAUCUAACAAAAAAGACAAAUCUGCCACAAAGCUUGGGAGCAUCUUCGGAUGCAAAGACGGCAGCCUUCGGUGGCGCGAUAGCGCCAACGUUCUCAACUAUGACACACAAAACGAGUGCUCCGUUGAAUGGAGUUUAUCAUG [A47G G65A G68A G117A C125A] the “polymerase ribozyme fitness (log ratio)” value was at most -4.2.
For GGAUCUUCUCGAUCUAACAAAAAAGACAAAUCUGCCACAAAGCUUGGGAGCAUCUUCGGAUGCACACGCGGCAGCCUUCGGUAGCGCGAUAGUGCCAACGUUCUCAACUAUGACACGCCAAACGCGUGCUCCGUUGAAUGGAGUUUAUCUUG [A47G G65C G67C G83A C93U A119C A150U], the “polymerase ribozyme fitness (log ratio)” value was at most -4.2.
In the case of GGAUCUUCUCGAUCUAACAAAAAAGACAAAUCUGCCACAAAGCUUGGGAGCAUCUUCGGAUGCAGAGGCGGCAGCCUUCCGUGGCGCGAUAGCGCCAACGUUCUCAACUAUGACAGUGAAAACGCGUGGUCCGUUGAAUGGAGUUUAUCAUG [A47G G80C C116G G117U C118G C129G], the “polymerase ribozyme fitness (log ratio)” value is reported as at most -4.2.
In the case of GGAUCUUCUCGAUCUAACAAAAAAGACAAAUCUGCCACAAAGCUUGGGAGCAUCUUCGGAUGCAGAGGCGGCAGCCUUCUGUGGCGCGAUUGCGCCAACGUUCUCAACUAUGACACGCAAUACGCGUGCUCCGUUGAAUGGAGUUUAUCAUG [A47G G80U A91U A121U], the “polymerase ribozyme fitness (log ratio)” value is reported as at most -4.2.
For GGAUCUUCUCGAUCUAACAAAAAAGACAAAUCUGCCACAAAGCUUGGGAGCAUCUUCGGAUGCAGAGGCGGCAGCCUUCGAUGGCGCGAUCGCGCCAACGUUCUCAACUAUGACACGCAAAACGCGUGCUCCGUUGCAUGGAGUUUACCAUG [A47G G81A A91C A137C U148C], the “polymerase ribozyme fitness (log ratio)” value was at most -4.2.
With GGAUCUUCUCGAUCUAACAAAAAAGACAAAUCUGCCACAAAGCUUGGGAGCAUCUUCGGAUGCAGAGGCGGCAGCCUUCGGUGGCGCGAUAGCGCCAACCUUCUCAACUAUGACACGGAAAACGCGUGCUCCGUUGAAUGGAGUUUAUCAUG [A47G G100C C118G] the “polymerase ribozyme fitness (log ratio)” value was at most -4.2.
In the case of GGAUCUUCUCGAUCUAACAAAAAAGACAAAUCUGCCACAAAGCUUGGGAGCAACUUCGGAUGCAGAGGCGGCAGCCUUCGGUGGCGCGAUUGCGCCAAUGUUCUCAGCUAUGACACGCAAAACGCGGGCUCCGUUGAAUGGAGUUUAACAUG [A47G U53A A91U C99U A107G U127G U148A], the “polymerase ribozyme fitness (log ratio)” value is reported as at most -4.2.
In the case of GGAUCUUCUCGAUCUAACAAAAAAGACAAAUCUGCCACAAAGCUUGGGAGCAUCAUCGGAUGCAGAGGCGGCAGCCUUGGGUGGCGCGAUAGUGCCAACGUUCUCAACUAUGACACGCAAAACGCGUGCUCCGUUGAAUGGAGUUUAUCAUG [A47G U55A C79G C93U], the “polymerase ribozyme fitness (log ratio)” value is reported as at most -4.2.
With GGAUCUUCUCGAUCUAACAAAAAAGACAAAUCUGCCACAAAGCUUGGGAGCAUCAUCGGAUGCAGAGGCGGCAGCCUUCGGUGGCGCGAUAGCGCCAACGUUCUCAACUAUGACAGGCAAAACGCGUGCUCCGUUGAAUGGAGUUUAUCAUG [A47G U55A C116G] the “polymerase ribozyme fitness (log ratio)” value was -0.139.
For GGAUCUUCUCGAUCUAACAAAAAAGACAAAUCUGCCACAAAGCUUGGGAGCAUCAACGGAUGCAGAGGCGGCAGCCUUCGGUGGCGCGAUUGCGCCAACGUUCUCAACUAUGACACGCAAGACGCGUGCUCCGUUGCAUGGAGUUUAUCAUG [A47G U55A U56A A91U A121G A137C], the “polymerase ribozyme fitness (log ratio)” value was at most -4.2.
With GGAUCUUCUCGAUCUAACAAAAAAGACAAAUCUGCCACAAAGCUUGGGAGCAUCUUCGGAAGCAGAGGCGGCAGCCUACGGUGGCGCGAUAGUGCCAACGUUCUUGACUAUGACACGCAAAACGCGUGCUCCGUUGAAUGGAGAUUAUCAUG [A47G U61A U78A C93U C105U A106G U144A] the “polymerase ribozyme fitness (log ratio)” value was at most -4.2.
With GGAUCUUCUCGAUCUAACAAAAAAGACAAAUCUGCCACAAAGCUUGGGAGCAUCUUCGGAUGCAGAGGCGGCAGCCUUCGGUGGCGCGAAAGCGCCAACGUUCUCAACUAUGACACGCAAAACGCGUGCUCCGUUGAAUGGAGUUUAUCAUG [A47G U90A] the “polymerase ribozyme fitness (log ratio)” value was -3.82.
In the case of GGAUCUUCUCGAUCUAACAAAAAAGACAAAUCUGCCACAAAGCUUGGGAGCAUCUUCGGAUGCAGAGGCGGCAGCCUUCGGUGGCGCGACACCGCCAACGUUCUCAACUAUGACACGCAAAACGCGUUCUCCGUUGCAUGGAGUUUCUCAUG [A47G U90C G92C G128U A137C A147C], the “polymerase ribozyme fitness (log ratio)” value is reported as at most -4.2.
For GGAUCUUCUCGAUCUAACAAAAAAGACAAAUCUGCCACAAAGCUUGGGAGCAUCUUCGGAUGCAGAGGCGGCAGCCUUCGGUGGCGCGAGAGCGCCAACGUUCUCAACGAUGACACGAAAAACGCGUGCUCCGUUGAAUGGAGUUUAUCAUG [A47G U90G U109G C118A], the “polymerase ribozyme fitness (log ratio)” value was at most -4.2.
With GGAUCUUCUCGAUCUAACAAAAAAGACAAAUCUGCCACAAAGCUUGUGGGCAUCUUCGGAUGCAGAGGCGGCAGCCUUCGGUGGCGCGAUAGCGCCAGCGAUCUCAACUAUGACACGCAAAACGCGUGCUCCGUUGAAUGGAGUUUAUCAUG [A47U A49G A98G U101A] the “polymerase ribozyme fitness (log ratio)” value was at most -4.2.
In the case of GGAUCUUCUCGAUCUAACAAAAAAGACAAAUCUGCCACAAAGCUUGUGAGCGUCUUCGGAUGCAGAGGCGGCAGCCUUCGGUGGCGCGAUAGCGCCAACGUUCUCAACUAUGACACGCAAAACGCGUGCUCCGUUGAAUGGAGGUUAUCAUG [A47U A52G U144G], the “polymerase ribozyme fitness (log ratio)” value is reported as 0.507.
